# The campaign covered roughly 220,000 compounds. About 16,000 (7.3%) were called active. The shares of active, inactive and inconclusive entries below differ from those in the screen. The call rests on the fitted dose curve; in most records, active means well fitted inhibition curve with a large enough effect (not every such curve was filed as active); inconclusive means small, poorly fitted or top-dose-only effect, or another doubt; inactive means no such curve, though single readings can be large or run the other way. Potencies of inconclusive entries are left out as doubtful fits.
# Molecular target: Aldehyde dehydrogenase 1A1 (Homo sapiens) (UniProt P00352)
# UniProt P00352, sequence (P00352 whole entry, looked up): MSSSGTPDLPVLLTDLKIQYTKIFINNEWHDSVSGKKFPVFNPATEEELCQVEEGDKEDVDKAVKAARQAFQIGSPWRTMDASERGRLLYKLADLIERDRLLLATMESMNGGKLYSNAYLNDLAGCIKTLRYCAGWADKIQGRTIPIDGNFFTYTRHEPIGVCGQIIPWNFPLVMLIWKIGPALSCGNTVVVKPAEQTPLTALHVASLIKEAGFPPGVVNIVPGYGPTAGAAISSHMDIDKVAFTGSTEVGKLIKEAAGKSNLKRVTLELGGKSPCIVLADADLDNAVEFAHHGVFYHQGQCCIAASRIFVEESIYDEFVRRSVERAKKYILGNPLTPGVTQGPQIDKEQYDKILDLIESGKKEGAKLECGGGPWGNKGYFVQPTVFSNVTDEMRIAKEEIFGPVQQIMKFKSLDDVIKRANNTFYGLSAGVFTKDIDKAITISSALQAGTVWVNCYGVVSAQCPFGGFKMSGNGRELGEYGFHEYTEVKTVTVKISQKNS
# Experiment: qHTS Assay for Inhibitors of Aldehyde Dehydrogenase 1 (ALDH1A1);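 on activity, negative = inhibition: plate controls were no enzyme wells and a reference inhibitor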
# Conditions: Purified ALDH1A1, NADH fluorescence, propionaldehyde substrate; series mostly up to 75.3 µM
# Potency means the concentration at half of the fitted maximal effect; tags describe the fitted curve by direction and shape.
SMILES,Potency,"activity, negative = inhibition"
COc1ccc2cc(-c3cc(C(=O)OCC(=O)NC4CCS(=O)(=O)C4)c4ccccc4n3)ccc2c1 (stereo not drawn),"inconclusive [inhibitor, partial curve]",–
c1ccc(Cn2ccc(-c3cnc(-c4ccccc4)s3)n2)cc1,"inconclusive [inhibitor, partial curve]",–
CC(=O)Nc1ccc(NC(=S)Nc2ccc(Br)cc2)cc1,"inconclusive [inhibitor, single point]",–
O=C(O)[C@@H](c1ccccc1)[C@@H](C(=O)O)c1ccccc1,–,inactive: -0.775% [at 13.5 µM]
COC(=O)c1c(-c2cccs2)csc1NC(=O)CSc1ncnc2sc(C)c(C)c12,"inconclusive [inhibitor, partial curve]",–
C=CCn1c(=S)[nH]c2ccccc2c1=O,inactive,–
CC(=O)c1ccc(OCCCN2CCCCC2)cc1,inactive,–
O=C(Nc1nccs1)c1ccccc1[N+](=O)[O-],inactive,–
CCCCNC(=O)NC(C(=O)OC)C12CC3CC(CC(C3)C1)C2 (stereo not drawn),"inconclusive [inhibitor, single point]",–
Cc1nc2ccccn2c1C(=O)NN=C1C2CC3CC(C2)CC1C3,"inconclusive [inhibitor, partial curve]",–
NCCCCCc1nnc(SCC(=O)c2ccc(Cl)cc2)o1,"inconclusive [inhibitor, full curve, poor fit]",–
Cc1cc2c(nc1C)CCCN2C[C@H](C)O/N=C1/[C@H]2O[C@@H]2[C@@H](O)[C@H]2[C@H]1CCn1c(=O)n(-c3ccccc3)c(=O)n12,"inconclusive [inhibitor, single point]",–
CCOc1ccc(C2C(C(=O)OC)=CN(CCOC)C=C2C(=O)OC)cc1,"inconclusive [inhibitor, partial curve]",–
COC(=O)c1c(NC(=O)c2cccs2)sc2c1CCC(C)C2 (stereo not drawn),"inconclusive [inhibitor, single point]",–
COc1ccc(NC(=O)CSc2ccc(-c3ccccn3)nn2)cc1OC,active: 14.1 µM,–
Cc1cccc(NC(=O)c2cc(NC(=O)C3CCCCC3C(=O)O)ccc2N2CCCCC2)c1 (stereo not drawn),active: 17.8 µM,–
COc1cc(SC#N)ccc1N=Cc1c(C)[nH]n(-c2ccc(C)cc2C)c1=O,active: 0.708 µM,–
CSc1ncccc1C(=O)OCC(=O)Nc1ccc2c(c1)OCO2,"inconclusive [inhibitor, single point]",–
COc1ccc2[nH]c(=O)c(CN(Cc3ccc(C)cc3)Cc3nnnn3CC3CCCO3)cc2c1 (stereo not drawn),"inconclusive [inhibitor, partial curve]",–
N#CCCCSc1nnc(CSc2nc3ccccc3s2)n1-c1ccccc1,inactive,–
CC1=C(C#N)C(c2cccnc2)C2=C(CCCC2=O)N1 (stereo not drawn),"inconclusive [inhibitor, partial curve]",–
COc1ccc(-c2[nH]ncc2C=O)cc1OC,inactive,–
CC(C)(C)CN1CCNC(=O)C1CC(=O)N1CCC(C(=O)N2CCOCC2)CC1 (stereo not drawn),inactive,–
CCc1nnc(NC(=O)CSc2nnc(Cc3ccccc3)n2-c2ccc(OC)cc2)s1,"inconclusive [inhibitor, single point]",–
Cc1cc(=O)[nH]c(SCC(=O)c2c(N)n(C)c(=O)n(C)c2=O)n1,inactive,–

SMILES,Potency,"activity, negative = inhibition"
N#CCCN(C(=O)CO/N=C/c1cccc([N+](=O)[O-])c1)c1ccccc1,active: 25.1 µM,–
COC(=O)NC(/C(C(=O)OC)=C(\C)NCc1ccccc1)c1ccco1 (stereo not drawn),–,inactive: 18.1% [at 13.5 µM]
COC(=O)c1[nH]c2ccc(C)cc2c1NC(=O)CN1CCc2cc(OC)c(OC)cc2C1,"inconclusive [inhibitor, single point]",–
Cc1noc(C)c1S(=O)(=O)NCCCN1CCN(Cc2ccccc2)CC1,"inconclusive [inhibitor, single point]",–
CCn1c(SCC(=O)N2CCN(c3ccc(F)cc3)CC2)nnc1-c1ccncc1,"inconclusive [inhibitor, single point]",–
CN(CCOc1ccc(Cl)cc1)c1ccc(S(=O)(=O)N2CCCCC2)cn1,"inconclusive [inhibitor, partial curve]",–
O=C1/C(=C/c2ccccn2)SC(=S)N1N1CCOCC1,active: 4.47 µM,–
CCOC(=O)C1=C(C)NC(C)=C(C(=O)OCC)C1C(=O)OCC(=O)c1ccc2c(c1)OCCO2,"inconclusive [inhibitor, single point]",–
Nc1nc(-c2ccco2)nn1S(=O)(=O)c1ccc(Cl)cc1,inactive,–
C=CCn1c(-c2ccccc2[N+](=O)[O-])n[nH]c1=S,"inconclusive [inhibitor, single point]",–
CC(C)C(=O)NC(=S)Nc1ccc(S(=O)(=O)N2CCCC2)cc1,"inconclusive [inhibitor, partial curve, poor fit]",–
COc1ccc(NC(=S)N(CCCN2CCOCC2)Cc2cn(C)c3ccccc23)cc1,active: 0.562 µM,–
Cc1ccc(-c2[nH]c(=S)[nH]c(=O)c2C#N)cc1,inactive,–
CC[n+]1c(-c2ccc(C)cc2)csc1Nc1c(C)n(C)n(-c2ccccc2)c1=O,inactive,–
Cc1ccc(/C([O-])=C(/C(=S)NCc2ccco2)[n+]2ccccc2)cc1[N+](=O)[O-],"inconclusive [inhibitor, single point]",–
Cc1ccc(N2C(=O)C3NN=C(C(=O)OCc4ccccc4)C3C2=O)c(C)c1 (stereo not drawn),inactive,–
COc1ccc(S(=O)(=O)Cc2ccc(C(=O)N3CCc4ccccc4C3)o2)cc1,"inconclusive [inhibitor, partial curve]",–
C=C[C@]1(C)CC(=O)[C@@]2(O)[C@@]3(C)C(O)CCC(C)(C)C3C(O)C(OC(C)=O)[C@@]2(C)O1 (stereo partly drawn),inactive,–
COCCNC(=S)Nc1ccccc1Cc1ccccc1,inactive,–
O=C(O)c1ccccc1C(=O)Nc1ccccn1,inactive,–
O=C(NNc1nc2c(F)cc(F)cc2s1)C1COc2ccccc2O1 (stereo not drawn),inactive,–
CC(=O)N[C@@H]1C(O)OC(CO)C(O)C1O (stereo partly drawn),inactive,–
CCn1c(SCC(=O)Nc2ccc(-c3nc4ccc(C)cc4s3)cc2)nnc1-c1ccccc1,"inconclusive [inhibitor, partial curve]",–
CC(=O)N(c1ccccc1)c1ccc([N+](=O)[O-])cc1[N+](=O)[O-],inactive,–
COc1ccc(Br)cc1CN(C)CC(=O)Nc1c(Cl)cccc1Cl,inactive,–

SMILES,Potency,"activity, negative = inhibition"
CC(CNS(=O)(=O)c1cc(Cl)ccc1Cl)CN(C)C (stereo not drawn),inactive,–
CC(C)CN1C(=O)c2ccc(C(=O)Nc3ccccn3)cc2C1=O,active: 1.12 µM,–
Cc1cnc(CNc2ccnc(-c3ccccc3C)n2)cn1,inactive,–
CCC(C)[C@H](NC(=O)NCc1ccc(S(N)(=O)=O)cc1)C(=O)OC (stereo partly drawn),inactive,–
COC(=O)[C@H]1CC=C[C@H]2CCN(Cc3ccc(Cl)c(Cl)c3)C(=O)[C@@H]12,"inconclusive [inhibitor, single point]",–
CC1CCC(O)([C@](C)(C(=O)O)c2ccccc2)CC1 (stereo partly drawn),–,inactive: 0.541% [at 13.5 µM]
COc1cccc2c(=O)c(C/C=C(/C)Cl)c(C)[nH]c12,"inconclusive [inhibitor, single point]",–
O=C1CC(N2CCN(C/C=C/c3ccccc3)CC2)C(=O)N1Cc1cccs1 (stereo not drawn),inactive,–
COc1ccc2[nH]c(C)c(CCN(Cc3cccs3)C(=S)Nc3ccccc3OC)c2c1,active: 25.1 µM,–
Nc1ccc(-c2nnc(-c3ccc(-c4ccccc4)cc3)o2)cc1,"inconclusive [inhibitor, partial curve]",–
CCCCN(C)C(=O)c1nc2ccccn2c1CN1CCN(c2cnccn2)CC1,"inconclusive [inhibitor, single point]",–
CC1(C)CC(=O)C(C=NCCN2CCN(C(=S)Nc3cccc(Cl)c3)CC2)=C(O)C1,"inconclusive [inhibitor, single point]",–
O=C(Nc1cnc2ccccc2c1)c1ccncc1,"inconclusive [inhibitor, single point]",–
CC(NS(=O)(=O)c1ccc(CCC(=O)NCc2ccco2)cc1)c1ccccc1 (stereo not drawn),"inconclusive [inhibitor, partial curve, poor fit]",–
CCOC(=O)C(Cc1ccc(OC)c([N+](=O)[O-])c1)NC(=O)CCC(=O)Nc1ccc(C)cc1 (stereo not drawn),active: 14.1 µM,–
Cc1nnc(SCCn2c(N3CCCC(C)C3)nc3c2c(=O)n(C)c(=O)n3C)s1 (stereo not drawn),"inconclusive [inhibitor, single point]",–
CN1/C(=C/C(=O)c2nc(S(C)(=O)=O)ncc2Cl)C(C)(C)c2ccccc21,"inconclusive [inhibitor, single point]",–
O=C(Nc1ccccc1)Nc1ccc(C(=O)N2CCOCC2)cc1,inactive,–
O=C(Cc1ccc(Cl)cc1)Nc1cc(S(=O)(=O)N2CCOCC2)ccc1N1CCCC1,"inconclusive [inhibitor, single point]",–
C=CCn1c(SCc2nc3sc(C(=O)O)c(C)c3c(=O)[nH]2)nnc1-c1ccccc1,"inconclusive [inhibitor, single point]",–
C[C@H](N)c1nnc(SCC(=O)c2ccc(Cl)cc2)o1,active: 20 µM,–
CCNc1ncc2nc(-c3ccccc3)c(=O)n(Cc3cccc(OC)c3)c2n1,"inconclusive [inhibitor, partial curve]",–
COC(=O)c1c(C(=O)OC)c(-c2cccc(C)c2)n2c1CS(=O)(=O)C2,"inconclusive [inhibitor, partial curve, poor fit]",–

# Source: PubChem BioAssay AID1030 (National Center for Advancing Translational Sciences (NCATS), 2008)
